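Dose response: 5 concentrations. Exposure: 48 h. Format: 96-well plates. Endpoint: linear interpolation; highest concentration if not reached. GI50: concentration for 50% inhibition of growth.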 Active and inactive are the calls of the source. Cut-off read from the data, not from the text of the source: active = GI50 up to about 1.1 µM and inactive = higher.
System: NCI-H322M
Assay: NCI tumour cell line growth inhibition, 48 h

| Compound | GI50 |
| --- | --- |
| CCOC(=O)c1cc([N+](=O)[O-])cc([N+](=O)[O-])c1Sc1[nH]cnc2ncnc1-2 | inactive: 5.86 µM |
| COC(=O)CCC(NC(=S)N/N=C/c1ccccn1)C(=O)OC (stereo not given) | inactive: > 100 µM |
| Cc1ccc([N+](=O)[O-])cc1S(=O)(=O)Nc1ccc(C2=NN(S(=O)(=O)c3cc([N+](=O)[O-])ccc3C)C(c3ccccc3O)C2)cc1 (stereo not given) | inactive: > 100 µM |
| O=C1/C(=C/Cc2ccco2)N=C(c2ccccc2)N1c1nc2ccc(Sc3ccccc3)cc2[nH]1 | inactive: 32.4 µM |
| CN(O)C(=O)c1ccccc1 | inactive: > 100 µM |
| CCO/C=N\c1c(C#N)c(-c2ccc(Cl)cc2)cn1-c1ccc(C)cc1 | inactive: > 100 µM |
| N#C/N=N/c1cc(Cl)c(/N=N/C#N)cc1Cl | inactive: > 100 µM |
| c1ccc2c(c1)c1c(n2CCOCCN2CCCCC2)CCCC1 | inactive: 15.3 µM |
| CCCCCC(O)(CCCCC)CCCCCCCCC1=C(O)C(=O)c2ccccc2C1=O | inactive: 14.9 µM |
| CC(=O)N1C(OC(C)C)CC(C)N1c1ccccc1 (stereo not given) | inactive: > 10 µM |
| COc1nc(NC2OC(COC(C)=O)C(OC(C)=O)C(OC(C)=O)C2OC(C)=O)c(/N=C(\C)C(C)=O)c(=O)n1C (stereo not given) | inactive: > 100 µM |
| COC(=O)Cn1cnc2c(Cl)nc(Nc3ccccc3)nc21 | inactive: 25.4 µM |
| CSC(C1c2ccccc2N(c2ccc(C)cc2)C2=NC(=O)N(C)C(=O)C21Cl)S(=O)(=O)c1ccc(C)cc1 (stereo not given) | inactive: 21.6 µM |
| N[C@H]1C2C3CC4C5CC(C42)C1(c1ccccc1)C53 (stereo not given in full) | inactive: > 100 µM |
| O=C1c2ccc(O)cc2C(=O)c2ccc(O)cc21 | inactive: 42 µM |
| Cc1cccc(NC(=O)c2cccc([N+](=O)[O-])c2O)c1C | inactive: 25.4 µM |
| CC1=NN=C(N)N/C1=C\C(Sc1ccc(Cl)cc1)c1ccc(Cl)cc1Cl (stereo not given) | inactive: 16.9 µM |
| CC[C@@]12CCCN3CC[C@]4(c5cccc(OC)c5N(C(C)=O)[C@@H]4CC1)[C@H]32 [ASPIDOSPERMINE] | inactive: > 100 µM |
| COC(=O)C12CCCN1CCC2 | inactive: > 100 µM |
| COC(=O)/C(C#N)=C(\Nc1ccccc1)N1CCCCC1 | inactive: > 100 µM |
| CC1(C)C(=O)C2(C#N)CCC1C2 (stereo not given) | inactive: > 100 µM |
| c1ccc2c(c1)-c1ccccc1C2N1CC2CCC(CC2)C1 | inactive: 30.5 µM |

| Compound | GI50 |
| --- | --- |
| COC(=O)c1ccc2c(c1)C(NC(C)=O)CCc1cc(OC)c(OC)c(OC)c1-2 (stereo not given) | active: 0.0198 µM |
| O=[N+]([O-])c1cc(C(F)(F)F)ccc1S(=O)(=O)N[C@@H]1CCCC[C@H]1NS(=O)(=O)c1ccc(C(F)(F)F)cc1[N+](=O)[O-] | inactive: 22.1 µM |
| Cc1ccc(N2C(=O)C(=O)N(/N=C3\C(=O)Nc4ccccc43)C2=S)cc1 | inactive: > 100 µM |
| Nc1nc(Cl)cc(NCCCCCCCCCCNc2cc(Cl)nc(N)n2)n1 | active: 0.0716 µM |
| CN1CCN(Cn2nc(-c3ccccc3)n(/N=C/c3ccc(-c4ccc(Cl)cc4Cl)o3)c2=S)CC1 | inactive: 13.1 µM |
| CN1C(=O)CCC2[C@@H]3CC=C4C[C@@H](O)CC[C@]4(C)C3CC[C@@]21C (stereo not given in full) | inactive: 36.6 µM |
| CC1(C)C(=O)C2(OS(=O)(=O)C(F)(F)F)CCC1C2 (stereo not given) | inactive: > 100 µM |
| CCOC(=O)/C(C#N)=C1\c2c([nH]c(=S)[nH]c2=O)Oc2ccc3ccccc3c21 | active: 0.064 µM |
| NS(=O)(=O)c1cc(Br)c(/N=N\c2ccc(O)c3ncccc23)c(Br)c1 | inactive: 39.7 µM |
| CC(=O)NCCC1CN(C(=O)/C=C/I)c2ccccc21 (stereo not given) | inactive: 14.3 µM |
| O=C1c2ccccc2C(=O)N1CC1(C(=O)O)NCCS1(=O)=O (stereo not given) | inactive: > 100 µM |
| Ic1cc2c(cc1C1SCCCS1)OCO2 | inactive: > 100 µM |
| COc1cc(C2c3cc4c(cc3[C@@H](Nc3cnc5ccccc5c3)C3COC(=O)[C@H]23)OCO4)cc(OC)c1O (stereo not given in full) | inactive: 3.4 µM |
| COc1ccc(-c2cc(=O)c3c(O)cc(C)cc3o2)cc1OC | inactive: > 100 µM |
| CCOC(=O)Cc1cc(=O)[nH]c(-n2[nH]c(C)c(CCO)c2=O)n1 | inactive: > 100 µM |
| CCOC(=O)C1(C/C=C\CBr)CCCC1=O (stereo not given) | inactive: > 100 µM |
| CC(=O)OC1CC2(O)C(CCC3(C)C(c4ccc(=O)oc4)CCC32O)C2(C)CCC(O)C=C12 (stereo not given) | active: < 0.0141 µM |
| CC(=O)N1C(Nc2ccccc2)CCN1c1ccccc1 (stereo not given) | inactive: > 10 µM |
| CC(C)(C)OC/C=C(\Br)CO | inactive: > 100 µM |
| Cc1cc(C)c(C2CC(O)C(CO)O2)cc1C (stereo not given) | inactive: > 100 µM |
| C[C@]12CC[C@H](OC3CCCCO3)CC1=CC[C@@H]1C2CC[C@]2(C)/C(=N/OCCC#N)CCC12 (stereo not given in full) | inactive: > 100 µM |
| Cc1c(C)c(CC(=O)N2CC2)c(C)c(C)c1CC(=O)N1CC1 | inactive: 20.1 µM |

| Compound | GI50 |
| --- | --- |
| S=C(Nc1ccccc1)Nc1ccccc1SC(/C=C/NNC1=NN=C(c2ccccc2)C(c2ccccc2)N1)c1ccccc1 (stereo not given) | inactive: > 100 µM |
| CC(=O)OCC1OC(N2C(=O)C(=O)c3cc(C)ccc32)C(OC(C)=O)C(OC(C)=O)C1OC(C)=O (stereo not given) | inactive: > 100 µM |
| CCC1C(=O)OCc2c1cc1n(c2=O)Cc2cc3ccccc3nc2-1 (stereo not given) | inactive: 33.8 µM |
| CC(C)CC1c2[nH]c3ccccc3c2C[C@H]2C(=O)NC(CCCCNC(=O)OC(C)(C)C)C(=O)N12 (stereo not given in full) | inactive: 44 µM |
| Cc1cccc(NC2=NC(=O)C(CC(=O)Nc3ccc(Cl)cc3C)S2)c1 (stereo not given) | inactive: > 100 µM |
| N/C(=N\c1ccccc1Cl)c1ccccc1N | inactive: > 100 µM |
| COP(=O)(/C=C/C(NC(=O)C(Cl)(Cl)Cl)c1ccccc1)OC (stereo not given) | inactive: > 100 µM |
| Cc1cc(S(=O)(=O)Nc2nc3ccccc3nc2-c2cccc([N+](=O)[O-])c2)c(S)cc1Cl | inactive: 17.5 µM |
| COC(=O)c1ccccc1Nc1ccccc1C(=O)OC | inactive: > 100 µM |
| COc1cc2c(cc1OCCCC(=O)Nc1cc(C(=O)Nc3cc(C(=O)NCCCN(C)C)n(C)n3)n(C)n1)N=CC1CCCN1C2=O (stereo not given) | inactive: > 100 µM |
| CCOC(=O)C1C[C@H]2CO[C@H](c3ccccc3)N2C1=O (stereo not given in full) | inactive: > 100 µM |
| Nc1nc(SCc2ccccc2[N+](=O)[O-])c2[nH]cnc2n1 | inactive: > 70.5 µM |
| C=CCn1c(=O)c(C(=O)NC(=O)OCC)cn(C2CCCCC2)c1=O | inactive: > 100 µM |
| NC(=O)N/N=C/C(/C=N/NC(N)=O)[N+](=O)[O-] | inactive: > 100 µM |
| O=C(c1ccccc1)c1ccc2[nH]c(-c3c(Cl)c(Cl)c(Cl)c(Cl)c3C(=O)N/N=C/c3cccc(Oc4ccccc4)c3)nc2c1 | inactive: > 100 µM |
| CC1=NNC(=O)C1C(CC(=O)c1c[nH]c2ccccc12)C(=O)O (stereo not given) | inactive: > 100 µM |
| CC(=O)OCC1OC(OC2CC3C(C)(C)C(OC(C)=O)CC[C@]3(C)C3CCC45CC4(CCC5[C@@H](C)C[C@H](O)C(O)C(C)(C)O)[C@]23C)C(O)C(O)C1O (stereo not given in full) | inactive: > 10 µM |
| CC1C(=O)CC(c2cccs2)N(N=O)C1c1cccs1 (stereo not given) | inactive: > 100 µM |
| CC(NNC(=O)c1cc[n+]([BH2-]C#N)cc1)c1ccccc1 (stereo not given) | inactive: > 100 µM |
| Cc1c(C)c(S(=O)(=O)N(CCCCN)OCCCN)c(C)c2c1OC(C)(C)CC2 | inactive: 15.4 µM |
| CC1=NN(C(=O)Cc2ccccc2)C(=O)/C1=C/c1c(O)ccc2ccccc12 | inactive: > 100 µM |
